From PubChem BioAssay AID651820 (National Center for Advancing Translational Sciences (NCATS), 2012)
Out of some 340,000 compounds screened, about 12,000 (3.5%) were called active. Inconclusive means that the source gave no clear call. Such entries were picked first, then a sample of the others. The call rests on the fitted dose curve; in most records, active means well fitted inhibition curve with a large enough effect; inconclusive means small, poorly fitted or top-dose-only effect, or another doubt; inactive means no such curve, though single readings can be large or run the other way. Potencies of inconclusive entries are left out as doubtful fits.

Test: qHTS Assay for Inhibitors of Hepatitis C Virus (HCV)
Details: Huh7.5.1 HCVcc-Cre (HCVcc is cell-culture hepatitis C virus) infection, luciferase reporter, 44 h; activity change, negative = inhibition: at 41.8 µM (top of the series) unless noted
Summary of the method: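 Cells seeded at 1,000/well and cultured 4 h, then compounds added followed by HCVcc-Cre virus (~0.5 moi). After 44 h further culture, luciferase substrate was added, plates held 15 min at room temperature, and luminescence read for 15 sec.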
On the % scale 0 is the no-effect control and ±100 the full control effect; potency means the concentration at half of the fitted maximal effect; tags describe the fitted curve by direction and shape.

Compound	Potency	activity change, negative = inhibition
COc1ccc(C(=O)c2ccc(Cl)cc2)c(OC)c1OC	inactive	
Cc1ccc(Cn2nnnc2CN2CCC(O)(c3ccccc3F)CC2)cc1	inactive	
CCc1nc2ccccc2c(C(=O)OCC(=O)C(C)(C)C)c1C	inconclusive [inhibitor, single point]	
CCCNC(=O)c1ccccc1NC(=O)c1ccccc1N(C)S(=O)(=O)c1ccccc1	inconclusive [inhibitor, single point]	
Cc1ccc(N2CC(C(=O)N(C)CC(=O)Nc3ccc(Cl)c(C(F)(F)F)c3)CC2=O)cc1 (stereo unspecified)	inconclusive [inhibitor, single point]	
Cc1ccc(NC(=O)c2ccc(CSc3ccccn3)cc2)cc1	inconclusive [inhibitor, single point]	
CC(CN(C)Cc1ccccc1)OC(=O)c1ccc2c(c1)OCCO2 (stereo unspecified)	inconclusive [inhibitor, full curve]	
COc1cc(/C=N/n2nnnc2Nc2ccccc2)cc(OC)c1OC	inconclusive [inhibitor, full curve]	
CCOC(=O)Cc1csc(NC(=O)COc2cccc(C)c2)n1	inconclusive [inhibitor, single point]	
CCOC(=O)c1cn[nH]c1NC(=S)Nc1ccc(OC)cc1	inconclusive [inhibitor, partial curve]	
COc1ccc(OC)c(N2C(=O)NC(=O)/C(=C\c3ccc([N+](=O)[O-])s3)C2=O)c1	inconclusive [inhibitor, single point]	
COc1ccc(OC)c(-n2nnnc2SCC(=O)Nc2ccccc2OC)c1		inconclusive: -34.5% [inhibitor]
ClC(Cl)c1nnc(-c2ccccc2)c(-c2c[nH]c3ccccc23)n1	inconclusive [inhibitor, full curve]	
O=[N+]([O-])c1cc(C(F)(F)F)cc([N+](=O)[O-])c1NCCCNc1ccc([N+](=O)[O-])c2cccnc12	inconclusive [inhibitor, partial curve, poor fit]	
Cc1cc(C)c(C)c(S(=O)(=O)N2CCN(C(=O)CNC(=O)c3ccco3)CC2)c1C	inconclusive [inhibitor, single point]	
C=CCN(Cc1ccc(OC)c(OC)c1)C(=O)c1cc2cc(F)ccc2[nH]1	inconclusive [inhibitor, partial curve]	
O=C(N/N=C/c1cc(Br)c(O)c(Br)c1O)c1ccc2c(c1)OCCO2	inconclusive [inhibitor, single point]	
COc1ccc(/C=N/Nc2cc(C)nc(N3CCOCC3)n2)c(OC)c1	inconclusive [inhibitor, partial curve, poor fit]	
Cc1cc(C)nc(/N=C(\N)Nc2cccc([N+](=O)[O-])c2)n1	inconclusive [inhibitor, partial curve]	
CCOc1ccccc1NC(=O)C1CCCN1C(=O)OCc1ccccc1 (stereo unspecified)	inconclusive [inhibitor, single point]	
CN(CC1CCCN(CCc2ccc(Cl)cc2)C1)C(=O)c1ccc2nc[nH]c2c1 (stereo unspecified)	inconclusive [inhibitor, partial curve]	
CCC1(C)Cc2c(sc3c2c(=O)n(C)c2nnc(SCc4ccc5c(c4)OCO5)n32)CO1 (stereo unspecified)	inconclusive [inhibitor, single point]	
CC(C)CC(NC(=O)/C(=C\c1ccco1)NC(=O)c1ccco1)C(=O)O (stereo unspecified)	inactive	
N=C1c2ccccc2CN1c1ccc(S(=O)(=O)N2CCCCC2)cc1	inactive	

Compound	Potency	activity change, negative = inhibition
O=C(Nc1cccc(Cl)c1)c1ccc(OC(=S)N2CCOCC2)cc1	active: 12.6 µM	
Cc1ccc(C(=O)N/C(=C\c2ccc(-c3ccc(Br)cc3)o2)C(=O)NCCCN(C)C)cc1	active: 2 µM	
O=C(NC1CCCc2ccccc21)c1cccc(S(=O)(=O)N2CCN(c3ccccc3)CC2)c1 (stereo unspecified)	inconclusive [inhibitor, partial curve, poor fit]	
CC(=O)/C=C/n1c(=S)oc2ccccc21	active: 4.47 µM	
N#Cc1cn(-c2ccccc2)nc1C(=O)c1ccccc1	inconclusive [inhibitor, single point]	
CCOC(=O)c1c(-c2ccc(OC)cc2)oc2ccc(O)cc12	inconclusive [inhibitor, single point]	
CCc1ccc(C(=O)C[n+]2cccc3cc(OC)ccc32)cc1	inconclusive [inhibitor, single point]	
CCN(CC(=O)NCc1ccc(Cl)cc1)C(=O)/C=C/c1ccc(C#N)cc1	inconclusive [inhibitor, single point]	
CCNc1oc(-c2ccccc2F)nc1S(=O)(=O)c1ccccc1	inactive	
CCc1nc(SCC(=O)Nc2nc3c(s2)CCCC3)c2ccccc2n1	inconclusive [inhibitor, single point]	
CCOC(=O)c1c(CSC(=N)N)n(C)c2cc(Br)c(OC(C)=O)cc12	inconclusive [inhibitor, partial curve]	
COc1ccccc1CN1C[C@@H]2C[C@@H](C3=Cc4cc(Cl)ccc4OC3)N3CCC[C@@]23C1=O	active: 11.2 µM	
COc1ccccc1C(=O)NC(=O)COC(=O)CNC(=O)c1ccccc1F	inactive	
Cc1cc(C(C)c2ccccc2)c(O)c(CN2CCOCC2)c1C (stereo unspecified)	inactive	
O=C(Cc1cccs1)N(Cc1ccco1)C1(C(=O)NC2CCCC2)CCCCC1	inconclusive [inhibitor, partial curve]	
C=C(C)Cn1c(SCC(=O)O)nnc1-c1ccc(C(C)(C)C)cc1	inconclusive [inhibitor, partial curve]	
CCOC(=O)c1c(C)[nH]c(C(=O)CSc2nccc(C)n2)c1C	inconclusive [inhibitor, full curve, poor fit]	
COc1ccc(NC(=O)CSc2ccccn2)c([N+](=O)[O-])c1	inactive	
COc1cccc(OCC(O)CN2CCC(CN3C(=O)c4cccc5cccc(c45)C3=O)CC2)c1 (stereo unspecified)	inconclusive [inhibitor, partial curve]	
O=C(Nc1ccc(Cl)c(Cl)c1)OCc1cccnc1	active: 22.4 µM	
O=C(NCCc1ccc(Cl)cc1)C1CCCN(S(=O)(=O)c2cnc[nH]2)C1 (stereo unspecified)	inactive	
O=C(CSc1ccc(Br)cc1)NC1CCCCCC1	inactive	
COc1cc(NC(=O)CSc2nnc(-c3ccncc3)o2)cc(OC)c1OC	inactive	
S=C(Nc1ccc(Cl)cc1)N1CCCCC1	inactive	

Compound	Potency	activity change, negative = inhibition
Cc1cnn(C(=O)c2ccccc2Br)c1	inconclusive [inhibitor, single point]	
Cc1ccccc1NC(=O)c1ccc2c(c1)N(C)CCS2	inconclusive [inhibitor, single point]	
Cc1ccc(OCCCSc2ncccn2)cc1C	inactive	
O=C(c1cc2c(s1)-c1ccccc1OC2)N1CCN(c2ccccc2)CC1	inactive	
Cc1ccc(-n2nc(C)c(NC(=O)CCl)c2C)cc1C	active: 3.55 µM	
Cc1ccc(NC(=O)Nc2ccc3c(c2)OCO3)cc1F	inactive	
COc1ccc(N(CC(=O)Nc2c(C)n(C)n(-c3ccccc3)c2=O)S(=O)(=O)c2ccccc2)cc1OC	inconclusive [inhibitor, single point]	
O=C1CSC(c2cn(-c3ccccc3)nc2-c2cccs2)N1CC1CCCO1 (stereo unspecified)	inconclusive [inhibitor, single point]	
O=C(c1ccc(Cl)c(S(=O)(=O)N2CCOCC2)c1)N(Cc1nnc(-c2ccccc2Cl)o1)C1CC1	inconclusive [inhibitor, single point]	
Cn1ccnc1/C(=N\NC(=O)c1ccccc1)c1cccc([N+](=O)[O-])c1	inconclusive [inhibitor, single point]	
CCCCc1nc(NCc2ccccc2)c(C#N)c2c1CCCC2	inconclusive [inhibitor, single point]	
COc1cc(C(CCN2CCCCC2)c2c(OC)cc(OC)c3c(-c4ccccc4)cc(=O)oc23)cc(OC)c1OC (stereo unspecified)	inactive	
O=C(O)Cc1ccc(NC(=O)Nc2cccc3ccccc23)cc1	inactive	
N#Cc1c2ccc(OCC(=O)NCc3ccco3)cc2n2ccccc12	inconclusive [inhibitor, partial curve]	
COc1ccccc1CNC(=O)c1ccc2c(=O)n3c(nc2c1)CCCCC3	inconclusive [inhibitor, partial curve]	
O=C1NC(=O)C(=CCc2ccccc2)C(=O)N1	inconclusive [inhibitor, single point]	
CCN(CC)S(=O)(=O)c1cc(Cl)ccc1OC	inconclusive [inhibitor, single point]	
Cn1nnnc1SCC(=O)NC(C)(C)C	inactive	
O=C(c1ccc2nc(N3CCOCC3)sc2c1)N1CCC(Cc2ccccc2)CC1	inconclusive [inhibitor, single point]	
O=C(N/N=C/c1c(O)ccc2ccccc12)c1cccnc1	active: 5.01 µM	
Fc1cccc(Cl)c1CSc1nnc(-c2ccncc2)o1	inactive	
C(=N\n1cnnc1)/c1ccc(OCc2ccccc2)cc1	inconclusive [inhibitor, single point]	
Cc1nc(SCC(=O)NCc2ccc3c(c2)OCO3)c(C#N)c2c1CCCC2	inconclusive [inhibitor, single point]	
